The text below walks through data of PubChem BioAssay AID488969 (Vanderbilt High Throughput Screening Facility, 2010).

The structures appear in SMILES notation. Several values for one entry are separate records, joined by “and”; a condition that tells them apart may be missing. Equal entries are not always repeated. Whole data set: some 110,000 compounds, median “z-score” near -0.1, cut for the highest 2% near 2. Some of the results follow. Activity calls are given as the source filed them.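 How the source made its calls: active means z-score in the third read window above 3 or below -3; inactive means the rest.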

The target of this assay is Metabotropic glutamate receptor 8 (Rattus norvegicus) (UniProt P70579). In words: mGluR8 Gi/Go-coupled signaling modulation – cell-based, rat, thallium flux, HTS, primary screen (AID 488969). The following applies: HEK293 rat mGluR8, GIRK (G protein-gated inwardly rectifying potassium channel) thallium flux, FluoZin2; at 10 µM; stronger effect = higher value; submaximal glutamate (EC20) added with thallium.
Sequence of UniProt P70579 (P70579 whole entry, looked up): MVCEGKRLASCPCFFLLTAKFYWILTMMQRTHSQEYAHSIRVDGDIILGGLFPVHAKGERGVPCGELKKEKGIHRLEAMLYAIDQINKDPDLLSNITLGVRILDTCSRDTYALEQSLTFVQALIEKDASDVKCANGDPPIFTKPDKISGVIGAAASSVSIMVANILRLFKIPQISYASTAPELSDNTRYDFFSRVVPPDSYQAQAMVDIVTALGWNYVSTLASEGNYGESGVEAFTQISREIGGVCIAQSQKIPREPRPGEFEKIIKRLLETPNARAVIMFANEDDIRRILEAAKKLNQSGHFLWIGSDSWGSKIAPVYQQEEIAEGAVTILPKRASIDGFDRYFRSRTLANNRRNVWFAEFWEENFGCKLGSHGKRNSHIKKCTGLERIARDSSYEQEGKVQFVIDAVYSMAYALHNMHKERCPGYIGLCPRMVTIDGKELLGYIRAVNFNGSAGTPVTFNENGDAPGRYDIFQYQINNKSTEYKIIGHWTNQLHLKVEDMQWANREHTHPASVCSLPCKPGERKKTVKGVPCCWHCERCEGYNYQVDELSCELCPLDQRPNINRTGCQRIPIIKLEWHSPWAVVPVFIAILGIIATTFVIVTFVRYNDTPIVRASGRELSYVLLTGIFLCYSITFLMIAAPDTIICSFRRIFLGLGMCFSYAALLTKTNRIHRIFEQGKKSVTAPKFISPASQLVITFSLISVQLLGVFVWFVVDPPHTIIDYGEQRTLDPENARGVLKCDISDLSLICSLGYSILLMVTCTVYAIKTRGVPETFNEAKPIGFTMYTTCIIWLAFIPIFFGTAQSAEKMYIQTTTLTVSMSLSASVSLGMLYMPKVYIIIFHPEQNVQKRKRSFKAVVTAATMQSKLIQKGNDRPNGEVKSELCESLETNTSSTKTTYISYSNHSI
`Cc1nn(Cc2ccccc2)c(C)c1/C=N/NC(=O)c1cccnc1`: the z-score worked out at 0.708.
In the case of `CCN(CC)S(=O)(=O)c1ccc(C(=O)NC2=C(C(=O)OC)SCC2)cc1`, the z-score was -0.366.
For `CNc1nc(OC)nc(N2CCOCC2)n1` the value was -0.113.
For the compound `CCN(CC)c1ccc(C(=O)OCc2cc(=O)oc3cc(O)ccc23)cc1`, the z-score was -0.383.
To `Cc1nc(C)c(CCNC(=O)c2cccc(Cl)c2)s1` belongs -0.511.
To `O=[N+]([O-])c1nn(-c2ccc3c(c2)OCCO3)n(O)c1=Nc1ccc(Cl)cc1` belongs 0.501; to `CCC(=O)c1cc2c(cc1NC(=O)c1ccc(C)cc1)OCCO2`, -0.0769.
To `COc1cc(NC(=S)N2CCN(C(=O)C3CCCO3)CC2)c(OC)cc1Cl` (stereo not drawn) belongs -0.362.
On to `C/C(=N/n1cnnc1)c1cccnc1`, for which the z-score is -0.439.
For `O=C(NCc1ccc2c(c1)OCO2)C1CC(c2ccc(Cl)cc2)=NO1` (stereo not drawn) the value was 0.177; for `c1ccc(-c2ccccc2OCCOCCN2CCCCC2)cc1`, 0.49; for `Cc1cccc2c(=O)c(C(=O)NCCCN3CCOCC3)c[nH]c12`, 0.205.
To `OC1C2CN3CCN(C2)CC1(Cc1ccccc1)C3` (stereo not drawn) belongs -0.319.
Regarding `O=C(CNC(=O)c1ccc(F)cc1)N/N=C/c1cn[nH]c1-c1ccccc1`, the z-score was -0.578.
As to `CC(C)CC(C(=O)O)C(C)CC(=O)Nc1ccn(-c2ccccc2)n1` (stereo not drawn), the z-score is -0.632.
For `Cc1nn(C)cc1C1C2=C(CC(C)(C)CC2=O)N(c2ccccc2)C2=C1C(=O)CC(C)(C)C2` the value was 0.00482; for `COc1cccc(NC(=O)c2ccc(Cn3cc([N+](=O)[O-])cn3)o2)c1`, -0.478.
For `COc1ccccc1NC(=O)Cn1c(=O)n2nc(C)nc2c2ccccc21` the value was 0.659; for `C=CCSC(=C(C#N)C#N)c1cc2c([nH]1)CCCC2`, -0.72.
To `CCc1ccc(OCC(=O)N(C)C)c(Br)c1` belongs -0.23; to `CCN(CC(=O)Nc1cccc(C(C)=O)c1)S(=O)(=O)c1ccc(OC)cc1`, -0.323; to `Fc1ccc(-c2ccnc(=S)[nH]2)cc1`, 0.44.
`CC(C)CCNC(=O)C1C2C=CC3(CN(Cc4ccccc4Cl)C(=O)C13)O2` (stereo not drawn) yielded a z-score of 0.263.
Turning to `CCCCCCc1cc2cc(S(=O)(=O)c3ccc(F)c(Cl)c3)c(=O)oc2cc1O`, the z-score stood at 0.064.
To `COCCSc1ccccc1C(=O)Nc1nncs1` belongs -0.0459; to `CC(C)(C)c1[nH]c2ccccc2c1/C=N/O`, -0.142; to `Cc1cc(C)n(S(=O)(=O)c2ccc(C)c(C)c2C)n1`, 0.242.
For the compound `CCOC(=O)c1c(C)[nH]c(C(=O)CSc2nnc(Nc3ccccc3F)s2)c1C`, the z-score is -0.0416.
To `CC(=O)c1ccc(NS(=O)(=O)Cc2ccc(Cl)cc2)cc1` belongs -0.0445; to `Cc1ccc2oc(-c3cccc(NC(=O)C4CCCO4)c3)nc2c1` (stereo not drawn), -0.78; to `COc1cccc(C(C(=O)NC2CCCCC2)N(CC2CCCO2)C(=O)CNC(=O)c2ccco2)c1` (stereo not drawn), 0.969.
For `CCCc1nc2c(=O)n(C)c(=O)[nH]c2n1CCC` the value was 0.0166; for `CCOc1cc(/C=N/O)cc(Br)c1OCC`, -0.564; for `CN1CCC(=NNC(=O)C(=O)NC2CCCCC2)CC1`, 2.04.
To `CCOC(=O)CSc1nc2ccc(N3CCOCC3)cc2c(=O)n1Cc1ccccc1` belongs -0.0203; to `Cc1cc(C)c(S(=O)(=O)N(C)CC(N)=O)c(C)c1`, -0.115; to `COc1ccc(/C=N/NC(=O)CCc2n[nH]c(=O)[nH]c2=O)cc1OC`, 0.0361.
Regarding `Cc1cccc(CS(=O)(=O)Cc2ccc(C(=O)NCC3CCCO3)o2)c1` (stereo not drawn), the z-score is 0.188.
To `N#C/C(=C\c1ccc(OC(=O)c2cccs2)cc1)c1nc2ccccc2[nH]1` belongs 0.191; to `CCn1c(SCc2ccc(Cl)cc2Cl)nc2nc3c(cc2c1=O)CCCC3`, -0.163.
As to `CC(C)(C)N1CC(c2nc3ccccc3n2Cc2ccc(Cl)cc2)CC1=O` (stereo not drawn), the z-score was -0.31.
In the case of `Cc1ccc2c(c1)N(CC(=O)NCC1CCCO1)C(=O)C(C)O2` (stereo not drawn), the z-score is -0.0365.
For `CCSc1nc2ccccc2[nH]1` the value was 0.692 and -0.162.
To `O=C1NC(=Nc2ccccc2)c2c1cccc2[N+](=O)[O-]` belongs -0.0364; to `O=C(Nc1ccc(S(=O)(=O)NC2CCCCC2)cc1)c1ccco1`, -0.383.
To `O=C(Sc1nnnn1C1CCCCC1)c1cccs1` belongs 0.027; to `Cc1cc(C)nc(SCCCn2c(=O)[nH]c3ccccc32)n1`, -0.982.
`COC(=O)c1[nH]c2cccc(OC)c2c1NC(=O)CN1CC2(C)CC1CC(C)(C)C2` (stereo not drawn) displayed a z-score of 0.828.
Consider `N#C/C(=C\c1ccc(-c2ccccc2)o1)C(=O)Nn1cnnc1`, for which the z-score was -0.000705.
For `O=C(CN1CCC(n2nnc3ccccc32)CC1)NCc1cccs1` the value was -0.523; for `O=C(c1ccccc1)c1ccncc1`, 1.21.
To `CCn1cc(C(=O)NCC(=O)OC)c2cc(OC)c(OC)cc2c1=O` belongs 0.247.
On to `CC1CCC(NC(=O)c2ccc(/C=C3\Oc4ccccc4N(C)C3=O)cc2)CC1` (stereo not drawn), for which the z-score was -0.501.
For `CC(C)(C)NC(=O)CSc1nncn1NCc1ccccc1` the value was 0.249.
In the case of `CCOC(=O)c1c(NC(=O)CSc2nc3ccccc3s2)sc(C(C)=O)c1C`, the z-score is -0.129.
For `Cc1cccc(NS(=O)(=O)c2cc(C(=O)OCC(=O)Nc3cc(C)on3)ccc2C)c1` the value was 0.725.
For `Nc1ncnc2c1ncn2CCOc1ccccc1` the value was -0.53; for `CCCC(C)C(=O)Nc1ccccc1C(=O)OCC` (stereo not drawn), -0.34.
For `CCOC(=O)CN1C(c2ccccc2O)Nc2ccc(Br)cc2C1c1ccccc1` (stereo not drawn) the value was -0.45; for `CCOC(=O)c1csc(NC(=O)Nc2cccc(Cl)c2)n1`, -0.0455.
`COc1ccccc1-c1nnc(NC(=O)C(C)SC2=NCCS2)s1` (stereo not drawn): the z-score is 0.0255.
For `CCN(c1ccccc1)S(=O)(=O)c1cccc(C(=O)OCc2nc3sc(C)c(C)c3c(=O)[nH]2)c1` the value was -0.263; for `Cc1cc2nc(SCCOC(=O)Nc3ccccc3)nc(C)c2cc1C`, -1.51; for `CCCCn1nnnc1SCC(=O)N1CCN(C(=O)c2ccco2)CC1`, 1.19.
As for `CN(C(=O)C1CCOC1)c1nnc(-c2ccncc2)s1` (stereo not drawn), the z-score was -0.0854.
For `CC1=NN(C(=O)COc2ccc(C)c(C)c2)C(O)(c2ccc(Cl)cc2)C1` (stereo not drawn), the z-score was -0.32.
For `CCCn1c(NC(=O)c2ccc(Br)cc2)nc2ccccc21` the value was 0.157; for `COC(=O)c1ccc2c(c1)N(Cc1nc(-c3cccc(C)c3)oc1C)C(=O)C1CCCN21` (stereo not drawn), 0.0455; for `CN(C)c1ccnc2sc3c(=O)n(-c4ccc(Cl)cc4)cnc3c12`, -0.112.
For `CSc1ccc(/C=C/c2cc(=O)c3ccccc3[nH]2)cc1` the value was -0.181.
To `COc1cc(S(=O)(=O)Nc2ncccc2C)c(OC)cc1Cl` belongs -0.119; to `COc1ccc(OC)c(-n2c(=O)c3ccccc3c3ccccc3c2=O)c1`, -1.05; to `CCOC(=O)c1c(-c2ccccc2)nc2ccc(C)cn12`, -0.937.
With `O=C(Nc1ncc(Cc2ccccc2Cl)s1)C1CCCO1` (stereo not drawn), the z-score is 0.12.
As to `CCOc1ccc(NC(=O)C2CCN(S(=O)(=O)c3c(C)n[nH]c3C)CC2)cc1`, the z-score is -0.783.
To `CCOC(=O)NCC(C)(C)CNC(=O)OCC` belongs -0.0942; to `O=C(CCN1C(=O)COc2ccccc21)NCc1cccs1`, 0.171; to `Cc1cccc(NC(=O)CCCN2C(=O)c3ccccc3C2=O)n1`, 0.0335.
To `O=C(NC(=S)NCc1ccccc1)c1ccccc1F` belongs 1.93; to `Nc1nc(NCC2CCCO2)nc(Nc2ccccc2)c1[N+](=O)[O-]` (stereo not drawn), -0.232.
To `Nc1nc(NCc2ccccc2)nc(Nc2ccc(F)cc2)c1[N+](=O)[O-]` belongs -0.178.
In turn, `CC(C)=CC/C=C1\CCC(C(=O)O)C(C(=O)O)C1` (stereo not drawn) gave a z-score of 0.0153.
To `CCc1ccccc1N(CC(=O)OC)S(C)(=O)=O` belongs -0.0143; to `O=C(CCNC(=O)c1ccccc1Cl)Nc1cccc(C(F)(F)F)c1`, -0.204; to `CN(C)/C=C1/C=C(c2ccccc2)OC1=O`, -0.519.
For `CCN1C(=O)C(CC(=O)Nc2ccc(OC)cc2)N(Cc2ccc3c(c2)OCO3)C1=S` (stereo not drawn) the value was -0.389; for `COc1cc(S(=O)(=O)Nc2ccc(C)cc2)ccc1N=Cc1c(C)[nH]n(-c2ccccc2)c1=O`, -0.093.
As for `COc1cc2c(C#N)c(N3CCOCC3)nc(N)c2c(N)n1`, the z-score was determined as 0.122.
To `C=CCNC(=O)NC(=O)CSc1nc2cc([N+](=O)[O-])ccc2n1-c1cccc(C(F)(F)F)c1` belongs 2.75; to `CSc1ccc(CNc2ccccc2)cc1`, -0.243.
To `Nn1c(SCC(=O)Nc2ccc3c(c2)OCO3)nnc1C1CC1` belongs -0.116; to `Cc1cccc(N=C2NC(=O)/C(=C/C=C/c3ccco3)S2)c1C`, active: 3; to `CCCCCn1c(=O)[nH]c2cc(C(=O)NCCc3ccc(OC)c(OC)c3)ccc2c1=O`, 0.552.
As for `COC(=O)C(C(=O)OC)C(C[N+](=O)[O-])c1ccc(O)c(OC)c1` (stereo not drawn), the z-score was -0.172.
For `O=C(O)c1cnn2c(C(F)F)cc(C(F)F)nc12` the value was -0.0339; for `COc1ccc2[nH]c(C)c(CCN(Cc3cccs3)C(=S)Nc3cccc(F)c3)c2c1`, 1.63; for `CCc1cn(S(=O)(=O)c2ccccc2OC)nc1N`, -0.998.
The compound `COc1cccc(C(=O)N/N=C(\CC(C)C)c2ccccc2)c1` came in with a z-score of 1.93.
In the case of `O=c1c(Cl)c(N2CCN(c3ccc(F)cc3)CC2)cnn1-c1nc2ccccc2s1`, the z-score was -0.0847.
To `CN(C)CCNC(=O)c1ccc2c(c1)N(Cc1ccc(F)cc1)CCS2` belongs 1.85; to `O=C(CSc1nc2ccccc2[nH]1)Nc1ccc2c(c1)OCCO2`, -0.394.
To `N#Cc1cnn(-c2ncnc3sc(-c4ccccc4)cc23)c1N` belongs -0.198.
For `CC1(C)CC(=O)c2sc(NC(=O)CN3CCOCC3)nc2C1` the value was 0.431; for `Cc1ccc(CNC(=S)Nc2ccc(OC(F)F)cc2C)cc1`, -0.531; for `O=C(Nc1ccccc1)C(Cc1ccccc1)NC(=O)C12CC3CC(CC(C3)C1)C2` (stereo not drawn), 0.0454.
As for `CCCn1nc([N+](=O)[O-])c(C(C#N)c2nc3ccccc3s2)c(Cl)c1=O` (stereo not drawn), the z-score was -2.49.
As to `COc1ccc2c(c1OC)C(=O)N1c3ccccc3C(=O)N(c3ccccc3)C21` (stereo not drawn), the z-score was -0.451.
To `CCN1C(=O)CC(C(=O)Nc2ccc(F)cc2)SC1=Nc1cccc(OC)c1` (stereo not drawn) belongs -0.764.
To `COC(=O)CCC(=O)Nc1ccc(C)cc1OC(=O)CCC(=O)OC` belongs 0.273.
To `COc1cc(/C=N/NC(=O)c2nc(C)cc(C)n2)ccc1O` belongs -0.127; to `Cc1cc(C)n(-c2ccc(C(=O)Nc3cc(S(=O)(=O)N(C)C)ccc3Cl)cc2)n1`, -0.372; to `CC1CCCC2(C1)NC(=S)c1c(sc3c1CCCC3)N2` (stereo not drawn), 1.1.
Regarding `Cc1cc(C)c(OCCCCCNCCO)c(C)c1`, the z-score was found to be 1.43.
